Results on two molecules are retold here after patent US20210269542A1 (POTENZA THERAPEUTICS, published 2021).

For one assay, the target named is T1, cyno GITR-Fc (cynomolgus monkey).
T1 construct: also called cGITR; cynomolgus GITR
T1 chain: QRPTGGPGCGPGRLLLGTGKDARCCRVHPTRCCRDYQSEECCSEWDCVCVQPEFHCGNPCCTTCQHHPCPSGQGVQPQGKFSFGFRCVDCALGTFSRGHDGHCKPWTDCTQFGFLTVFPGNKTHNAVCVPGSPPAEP
Description: BLI Octet RED384, ABP on AHQ sensor, 100 nM antigen, single concentration.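 Also: association and dissociation each tracked over 180 s, with dissociation run in antigen-free buffer.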

The next assay concerns the target T2, human GITR-Fc (human, UniProt Q9Y5U5 26-162).
T2 construct: also called recombinant hGITR; wild type human GITR-Fc
T2 sequence: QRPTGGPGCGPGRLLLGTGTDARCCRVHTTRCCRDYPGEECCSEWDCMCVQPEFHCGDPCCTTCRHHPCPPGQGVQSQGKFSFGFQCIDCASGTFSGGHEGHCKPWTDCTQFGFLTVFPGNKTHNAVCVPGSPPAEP
The assay is described as above.

Assay [1] concerns the target T3, human GITR expressed on cells (human, UniProt Q9Y5U5 26-241).
T3 sequence: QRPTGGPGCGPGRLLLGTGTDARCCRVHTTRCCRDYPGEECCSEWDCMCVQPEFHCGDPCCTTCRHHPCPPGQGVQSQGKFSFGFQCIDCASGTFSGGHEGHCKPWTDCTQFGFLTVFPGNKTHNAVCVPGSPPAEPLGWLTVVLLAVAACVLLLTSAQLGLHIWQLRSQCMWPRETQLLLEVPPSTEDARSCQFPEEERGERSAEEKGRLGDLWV
Description: cell-based or functional assay.

B1: ABP25 (antibody, human IgG4 S228P, kappa)
heavy: QVQLVQSGAEVKKPGSSVKVSCKASGGTFSSYYISWVRQAPGQGLEWMGGIIPVPGTANYAQKFQGRVTITADESTSTAYMELSSLRSEDTAVYYCARAGGGYARGDHYYGMDVWGQGTTVTVSSASTKGPSVFPLAPCSRSTSESTAALGCLVKDYFPEPVTVSWNSGALTSGVHTFPAVLQSSGLYSLSSVVTVPSSSLGTKTYTCNVDHKPSNTKVDKRV[human IgG4 Fc with S228P (EU numbers) left out]GGGGSGGGGSGGGGSQVQLVQSGAEVKKPGSSVKVSCKASGGTFSSYYISWVRQAPGQGLEWMGGIIPVPGTANYAQKFQGRVTITADESTSTAYMELSSLRSEDTAVYYCARAGGGYARGDHYYGMDVWGQGTTVTVSSASTKGPSVFPLAPSSKSTSGGTAALGCLVKDYFPEPVTVSWNSGALTSGVHTFPAVLQSSGLYSLSSVVTVPSSSLGTQTYICNVNHKPSNTKVDKRVEPKSC
light: not shown
Broadly, the Kd is the concentration at which binding is half-saturated. Read a high Kd as a looser complex. Regarding B1, the results for the Kd with cyno GITR-Fc and with human GITR-Fc were 11 nM and 4.5 nM, respectively. The “Average EC50 in Human HT1080 (IL-8 induction)” value in assay [1] amounted to 0.46 nM.

B2: ABP19 (antibody, human IgG4 S228P, kappa)
heavy: QVQLVQSGAEVKKPGSSVKVSCKASGGTFSSYYISWVRQAPGQGLEWMGGIIPVPGTANYAQKFQGRVTITADESTSTAYMELSSLRSEDTAVYYCARAGGGYARGDHYYGMDVWGQGTTVTVSSASTKGPSVFPLAPSSKSTSGGTAALGCLVKDYFPEPVTVSWNSGALTSGVHTFPAVLQSSGLYSLSSVVTVPSSSLGTQTYICNVNHKPSNTKVDKRVEPKSCGGGGSQVQLVQSGAEVKKPGSSVKVSCKASGGTFSSYYISWVRQAPGQGLEWMGGIIPVPGTANYAQKFQGRVTITADESTSTAYMELSSLRSEDTAVYYCARAGGGYARGDHYYGMDVWGQGTTVTVSSASTKGPSVFPLAPCSRSTSESTAALGCLVKDYFPEPVTVSWNSGALTSGVHTFPAVLQSSGLYSLSSVVTVPSSSLGTKTYTCNVDHKPSNTKVDKRV[human IgG4 Fc with S228P (EU numbers) left out]
light: not shown
notes: TM format, N-terminal Fab: VH + IgG1 CH1 + GGGGS + VH + IgG4 S228P
In the case of B2, the values for the Kd with cyno GITR-Fc and with human GITR-Fc were 12.6 nM and 5.2 nM, respectively. The “Average EC50 in Human HT1080 (IL-8 induction)” value in assay [1] amounted to 0.25 nM.
